Experimental findings from ChEMBL document CHEMBL4888484, “Replenishing the malaria drug discovery pipeline: Screening and hit evaluation of the MMV Hit Generation Library 1 (HGL1) against asexual blood stage Plasmodium falciparum ,using a nano luciferase reporter read-out” (2022) are described below.

The campaign covered roughly 150,000 compounds. About 540 (0.36%) showed an effect of 50% or more. Some of the results follow.

For orientation: % Inhibition means the drop in the measured response relative to a control, in per cent.

For this experiment, the system named is Plasmodium falciparum. The experiment in a line: Primary screen in NF54 nanoGlo assay, in single point, at 2uM, 72h; a lower Z score goes with more inhibition. It is filed as functional, Erythrocyte. The conditions noted are these: timepoint 72 hour.
Take `CN(CCc1ccncc1)[C@H]1CS(=O)(=O)C[C@@H]1S(=O)(=O)c1ccccc1`: the “% Inhibition” value is reported as 0% and the Z score is given as 0.01.

As for `CC[C@H](NC(=O)COCC1CC1)c1ccc(F)cc1F`, the “% Inhibition” value was determined as 2% and the Z score was -0.2.

Regarding `CC(=O)NS(=O)(=O)NC1CCC(C(F)(F)F)CC1` (stereo not given), the “% Inhibition” value is -7% and the Z score is on record as 0.71.

For `CCC(=O)Nc1ccc(C(=O)CN2C(=O)N[C@]3(CCc4ccccc4C3)C2=O)cc1`, the “% Inhibition” value was -15% and the Z score is on record as 2.63.

For the compound `Cc1cnc(N(C)Cc2nonc2C)nc1-c1ncnn1C`, the “% Inhibition” value is given as -14% and the Z score was found to be 1.33.

For `COc1ccccc1CNC(=O)CNC(=O)[C@H]1CC[C@H](CNS(=O)(=O)c2ccc(F)cc2)CC1`, the “% Inhibition” value is given as -11% and the Z score worked out at 1.12.

In the case of `O=C(N[C@@H](CN1CCCCCC1=O)c1ccccc1)C1CCC1`, the “% Inhibition” value turned out to be 0% and the Z score is -0.09.

Take `CN(C)[C@H]1CCC[C@@H]1NS(=O)(=O)Cc1ccccc1`: the “% Inhibition” value is -4% and the Z score worked out at 0.56.

Regarding `CCOc1ccccc1NC(=O)[C@H]1CC(=O)N(c2cccc(-c3noc(C4CCC4)n3)c2)C1`, the “% Inhibition” value is given as -13% and the Z score worked out at 1.75.

Regarding `Cc1n[nH]c(C)c1CCN(C)C(=O)Nc1cc(F)ccc1Cl`, the “% Inhibition” value is recorded as -17% and the Z score was 2.46.

For `COc1cccc(CNC(=O)Cn2c(=O)c3nncn3c3ncccc32)c1`, the “% Inhibition” value is on record as -15% and the Z score is 1.91.

Consider `COc1cc(C2C3C(=O)N(c4cccc(C)c4)C(=O)C3ON2c2ccccc2)ccc1OC(=O)c1ccccc1` (stereo not given), for which the “% Inhibition” value is recorded as 6% and the Z score is recorded as -0.66.

For `O=C(Nc1cccc(-c2csc(Nc3ccccc3F)n2)c1)c1ccno1`, the “% Inhibition” value is recorded as -13% and the Z score was 2.43.

Take `COCCNC(=O)NCC1(c2cccs2)CC1`: the “% Inhibition” value was -12% and the Z score is on record as 1.68.

For `COc1ccc2c(c1)[C@H](C(=O)N(Cc1ccco1)c1ccccn1)CC2`, the “% Inhibition” value is recorded as 0% and the Z score is -0.03.

With `Cc1cc(-c2ccc(S(=O)(=O)Nc3ccc(F)c(Cl)c3)s2)[nH]n1`, the “% Inhibition” value is -6% and the Z score came out at 1.09.

As for `COc1ccc(-c2noc(-c3cccnc3N[C@@H](C)c3ccc(C)cc3)n2)cc1`, the “% Inhibition” value is -4% and the Z score is given as 0.62.

Take `Cc1nn(-c2ccc(C(F)(F)F)cc2)c(C)c1[C@@H]1C=C[C@@H](NC(=O)CC(C)(C)CC(=O)O)C1`: the “% Inhibition” value was -7% and the Z score stood at 1.12.

`Clc1ccc(COc2ccccc2CNC2CCCC2)c(Cl)c1`: the “% Inhibition” value is -2% and the Z score stood at 0.22.

Turning to `CCC(CC)NC(=O)CON=C(N)c1ccc(C)cc1`, the “% Inhibition” value is -1% and the Z score worked out at 0.18.

`COc1cccc(CN2CCC(F)(C(=O)N3CCCC3)CC2)c1`: the “% Inhibition” value is on record as -12% and the Z score is on record as 1.56.

Consider `CC1(C)CN(C(=O)CCCOc2ccccc2)C[C@]1(C)O`, for which the “% Inhibition” value is recorded as -12% and the Z score is 2.13.

On to `O=C(O)c1ncn2c1CO[C@H](c1ccc(Cl)cc1)C2`, for which the “% Inhibition” value was 1% and the Z score is listed as -0.1.

`COc1cccc(OC)c1C(=O)N1CCC([C@H](C)N2CCN(C)CC2)CC1`: the “% Inhibition” value is recorded as -12% and the Z score worked out at 1.66.

Consider `COc1ccc(C(=O)NCc2sc(-c3cccs3)nc2C)nn1`, for which the “% Inhibition” value was -9% and the Z score is given as 1.74.

Take `CC(C)c1nnc2c(N3CCC[C@H]3COc3ccccc3)nccn12`: the “% Inhibition” value is listed as -1% and the Z score was 0.18.

With `COc1cc2ncn([C@H]3[C@@H]4OC[C@@H](O4)[C@@H](NCc4cccnc4)[C@@H]3O)c2cc1OC`, the “% Inhibition” value is given as -9% and the Z score is recorded as 1.65.

Consider `CCn1nc(-c2ccc(C(N)=O)cc2)nc1CCN1CCN(C)CC1`, for which the “% Inhibition” value was determined as 1% and the Z score is -0.1.

For `COc1c(F)c(F)cc(C(=O)NCCn2c(=O)[nH]c3ncccc3c2=O)c1F`, the “% Inhibition” value is given as -16% and the Z score was 2.72.

`Cc1cnc(C(C)CNC(=O)NCC2Cc3ccccc3O2)s1` (stereo not given): the “% Inhibition” value is -8% and the Z score stood at 0.99.

As for `Cc1cc(C(=O)NCC[C@H](O)c2cccs2)no1`, the “% Inhibition” value is -6% and the Z score is on record as 0.89.

On to `CO[C@H]1CCN(C2CCN(C(=O)c3ccc4nsnc4c3)CC2)C1`, for which the “% Inhibition” value is given as -9% and the Z score was 1.2.

For `C[C@@]1(C(=O)NC2CCCCC2)Cn2c(ccc2-c2ccco2)C(=O)N1Cc1ccc2c(c1)OCO2`, the “% Inhibition” value is on record as -16% and the Z score was 1.55.

Turning to `Cc1ccccc1N1CCC(N2CCC(Cn3ccnc3)CC2)CC1`, the “% Inhibition” value is recorded as -3% and the Z score is recorded as 0.38.

With `CCn1cc(CN2CCc3[nH]cnc3[C@@H]2c2cc3ccccc3n2C)c(C)n1`, the “% Inhibition” value was -3% and the Z score is given as 0.41.

Regarding `O=C1C[C@H](NC(=O)c2cncc(Br)c2)CN1`, the “% Inhibition” value was 2% and the Z score is -0.38.

Consider `O=C(NCc1noc(-c2ccco2)n1)c1coc(C2CC2)n1`, for which the “% Inhibition” value stood at 12% and the Z score is -1.51.

As to `CC(=O)Nc1ccc(CNC[C@H]2Cn3c(-c4ccc5c(c4)OCCO5)cnc3CO2)cc1`, the “% Inhibition” value came out at 17% and the Z score was -1.96.

Turning to `CCCN(CC1CC1)C(=O)C1CCCN(c2cccc3c2C(=O)N(C(C)c2nccs2)C3=O)C1` (stereo not given), the “% Inhibition” value is -2% and the Z score came out at 0.43.

As to `COC[C@@H]1CN(Cc2ccc[nH]2)C[C@H]1c1nc(C2CC2)no1`, the “% Inhibition” value is listed as -12% and the Z score came out at 2.01.

`COc1cccc(-c2n[nH]cc2C(=O)NC2CCN(c3ncnc4c3CCCC4)CC2)c1`: the “% Inhibition” value is on record as -7% and the Z score came to 0.95.

With `COc1ccccc1NC(=O)N(CC(=O)N(Cc1cccn1Cc1ccc(Br)cc1)C1CCCCC1)C(C)C`, the “% Inhibition” value was -8% and the Z score was 1.17.

Turning to `COc1ccc(CNC(=O)N2CCC3(CC2)C[C@@H](Cc2nc(-c4cccnc4)no2)CCO3)cc1`, the “% Inhibition” value is -1% and the Z score is given as 0.07.

For `N#Cc1c(NC(=O)CCN2CCOCC2)sc2c1CCC2`, the “% Inhibition” value is listed as -8% and the Z score is given as 1.17.

For `C[C@H]1CN(CCCN2CCCC2=O)CCN1c1ccc2nncn2n1`, the “% Inhibition” value is -3% and the Z score stood at 0.34.

Take `Cc1cc(C(=O)Nc2cc(C)on2)nc(N2CCOCC2)n1`: the “% Inhibition” value was -6% and the Z score was determined as 0.98.

Consider `CCC(=O)N(CC)CC(=O)Nc1nc(-c2ccccc2)cn1-c1ccc(OC)c(OC)c1`, for which the “% Inhibition” value came to 3% and the Z score is recorded as -0.43.

Regarding `CCC(CC)n1nc(C)cc1C(=O)N1CCOc2ccc(F)cc2C1`, the “% Inhibition” value stood at 9% and the Z score is reported as -1.34.

Turning to `COCc1nc(C2(CC3CC3)CCN(C(=O)COCc3ccccc3)CC2)no1`, the “% Inhibition” value is listed as 8% and the Z score is listed as -1.

Consider `Cc1ccc(CN(C)C(=O)c2cccc(S(=O)(=O)N3CCCC3)c2)o1`, for which the “% Inhibition” value is -17% and the Z score was found to be 2.67.

Turning to `CC(NC(=O)CC1CCCCC1)C(=O)N1CCCCC1c1nc2ccccc2o1` (stereo not given), the “% Inhibition” value is -15% and the Z score was 1.65.

Turning to `Cc1cc(=O)c(C(=O)N(c2ccc(C)c(F)c2)C2CCOCC2)c[nH]1`, the “% Inhibition” value was -14% and the Z score was determined as 1.72.

Take `O=C(CCc1cc2n(n1)CCN(Cc1ccc3[nH]ccc3c1)C2)NCCO`: the “% Inhibition” value was -1% and the Z score was determined as 0.19.

As to `O=C(CN1C(=O)CCC1=O)N1CCCCCCC1`, the “% Inhibition” value is given as 4% and the Z score is -0.37.

Regarding `COC(=O)Nc1cc(Cl)c(OC)cc1OC`, the “% Inhibition” value stood at 8% and the Z score is reported as -1.11.

Turning to `O=S(=O)(Oc1cccc2ccccc12)c1cccc2cccnc12`, the “% Inhibition” value is recorded as -10% and the Z score stood at 1.15.

As for `CCN(C(=O)c1ccccc1Cc1ccc(C)cc1)C1CCOCC1`, the “% Inhibition” value is listed as -13% and the Z score was determined as 1.36.

Regarding `Cc1cc(C)c(NC(=O)Cn2c(C)cc(C)c(-c3nc(-c4ccc5c(c4)OCO5)no3)c2=O)c(C)c1`, the “% Inhibition” value is -15% and the Z score is reported as 2.02.

Consider `CCn1c(=O)[nH]c(=O)c2c(C(=O)N3CCC[C@H]3c3ccc(OC)cc3)cc(C(C)C)nc21`, for which the “% Inhibition” value is -8% and the Z score is on record as 1.33.

Turning to `C[C@@]1(C(=O)NC2CCCCCCC2)Cn2nc(C3CC3)cc2C(=O)N1c1ccc(Cl)cc1`, the “% Inhibition” value is on record as -6% and the Z score worked out at 1.02.

For `Cc1c(C(=O)N2CCC(c3nc4ccccc4o3)CC2)oc2ccccc12`, the “% Inhibition” value is given as -21% and the Z score is listed as 1.84.

Consider `Cc1cc(Br)cc(C(=O)N(C)CC[C@H](C)O)c1`, for which the “% Inhibition” value is listed as -6% and the Z score was 0.57.

Turning to `CCS(=O)(=O)NCCNCc1ccc(C)cc1Br`, the “% Inhibition” value is on record as -8% and the Z score came out at 1.39.

For the compound `O=C(NC1CC[C@@H](O)[C@@H](O)CC1)c1nc(-c2ccccc2)ns1` (stereo not given in full), the “% Inhibition” value is -1% and the Z score was found to be 0.22.

`Cc1ccc2c(c1)CCCN2C(=O)c1cc(C2CC2)[nH]n1`: the “% Inhibition” value is recorded as -6% and the Z score was found to be 0.86.

As to `C=CCOc1cccc(NC(=O)[C@@H]2CN(S(C)(=O)=O)c3cc(C)ccc3O2)c1`, the “% Inhibition” value is reported as -14% and the Z score was found to be 1.86.

Consider `CCN1CCN(c2nc3ncn(CC(=O)Nc4ccc(Br)cc4)c(=O)c3s2)CC1`, for which the “% Inhibition” value is reported as -10% and the Z score turned out to be 1.64.

Turning to `CC(C)(C)c1csc(C2CCN(C(=O)c3ccco3)CC2)n1`, the “% Inhibition” value is given as -8% and the Z score stood at 1.14.

On to `CCCCN(CCC(=O)Nc1nnc(-c2ccc(C(F)(F)F)cc2)s1)C(=O)C1CCCC1`, for which the “% Inhibition” value is 12% and the Z score is recorded as -1.2.

With `Cc1cc(OCC(=O)NCCN2CCOCC2)nc2c1c(-c1ccccc1)nn2-c1ccccc1`, the “% Inhibition” value was -7% and the Z score is listed as 0.98.

With `COc1ccc(CC(=O)N2CCCN(c3ccc4nncn4n3)CC2)cc1OC`, the “% Inhibition” value is -11% and the Z score worked out at 1.43.

Take `Cc1nn(C)c(C)c1S(=O)(=O)N1CCC(Cc2nncn2Cc2ccccc2)CC1`: the “% Inhibition” value was -2% and the Z score came to 0.31.

With `O=C1NCCN(C(=O)c2ccc(O)cc2)[C@H]1Cc1ccccc1`, the “% Inhibition” value is 10% and the Z score is on record as -1.39.

Consider `CC(C)CN(CCn1nc2ccccn2c1=O)c1cccc(O)c1`, for which the “% Inhibition” value is -22% and the Z score is 2.96.

For the compound `Cc1nn(C)c(C)c1-c1c(-c2ccccc2)ncn1[C@@H](C)CCc1ccco1`, the “% Inhibition” value is -9% and the Z score amounted to 1.48.

As for `Cc1ccc(C)c([C@@H](NC(=O)c2cc(C(C)C)nn2C)c2cccnc2)c1`, the “% Inhibition” value is recorded as 1% and the Z score was -0.23.

`Cc1cc(C)c(S(=O)(=O)N2CCn3c(nn(CC4CC4)c3=O)C2)c(C)c1`: the “% Inhibition” value was -11% and the Z score was determined as 1.86.

With `O=C(c1n[nH]c2ccccc12)N1CCCn2nc(-c3ccc(Cl)cc3)cc2C1`, the “% Inhibition” value was -16% and the Z score was 2.74.

As for `COc1ccc(CN2CCCC3(CCOCC3)C2)c(OC)c1`, the “% Inhibition” value is reported as -1% and the Z score was 0.23.

With `Cn1c(C(=O)NCc2ccc(N3CCNC(=O)C3)cc2)ccc1-c1cccc(Br)c1`, the “% Inhibition” value came to 0% and the Z score came out at 0.05.
